Tested on: Salmonella typhimurium TA98, TA100, TA102, TA1535 and TA1537 strains
Assay: Ames test of Salmonella reverse mutation, with bacterial toxicity test

Structure (SMILES): C=C1C(=O)O[C@@H]2/C=C(\C)C[C@H]3C=C(CC/C=C(\C)CC[C@@H]12)C(=O)O3 [Ovatodiolide]
- bacterial gene mutation test result (Ames test, with and without S9): negative
- number of reverse mutation bacteria relative to negative control group (acting directly or with S9, 48 hours co-cultivation, up to 5 mg/plate (TA102) or 2.5 mg/plate (other strains)): not more than 2 times
- bacterial toxicity to TA98, TA100, TA1535 and TA1537 strains (concentration 2.5 mg/plate or less, 18 hours): no significant toxicity
- bacterial toxicity to TA102 strain (concentration 5 mg/plate or less, 18-20 hours): no significant toxicity
